# Where “and” joins values, the source holds several entries; their conditions need not be identical. Identical values can stand only once. About 6,500 (4.3%) of roughly 150,000 compounds were called active. Inconclusive means that the source gave no clear call. Such entries were picked first, then a sample of the others. Calls follow the shape of the dose curve; as a rule, active = well fitted inhibition curve with a large enough effect (not every such curve was filed as active); inconclusive = small, poorly fitted or top-dose-only effect, or another doubt; inactive = no such curve, though single readings can be large or run the other way. Potencies beside an inconclusive call are fits to weak or partial responses and may not hold up.
# Biological target: 15-hydroxyprostaglandin dehydrogenase [NAD(+)] (Homo sapiens) (UniProt P15428)
# Test: qHTS Assay for Inhibitors of HPGD (15-Hydroxyprostaglandin Dehydrogenase)
# Conditions: purified HPGD, NADH fluorescence kinetic, PGE2 substrate; activity change, negative = inhibition: stronger effect = lower value
# In short: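 20 nM HPGD preincubated 15 min at room temperature with compound in 50 mM Tris-HCl pH 8, 0.01% Tween 20. Started with 1 mM NAD+ and 30 uM prostaglandin E2; NADH fluorescence (360/450 nm) read 5 times over 30-s intervals, last minus first.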
# % is scaled to controls: 0 for no effect and ±100 for the full control effect; potency is read from the fitted curve at half-maximal effect; tags tell the direction and shape of the fitted curve.
# Sequence of UniProt P15428 (P15428 whole entry, looked up): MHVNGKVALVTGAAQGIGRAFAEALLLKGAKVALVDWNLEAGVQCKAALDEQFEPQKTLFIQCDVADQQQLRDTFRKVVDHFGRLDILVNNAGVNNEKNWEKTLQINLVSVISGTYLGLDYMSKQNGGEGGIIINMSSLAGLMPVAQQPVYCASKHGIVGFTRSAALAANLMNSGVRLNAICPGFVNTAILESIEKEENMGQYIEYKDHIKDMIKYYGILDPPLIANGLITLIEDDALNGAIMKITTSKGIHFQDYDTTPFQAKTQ
Compound,Potency,"activity change, negative = inhibition"
Cc1ccccc1-c1nnc(SCc2ccccc2F)o1,active: 15.8 µM,
CC1CCCC(C)N1C(=O)c1cc(-c2ccc(Cl)c(Cl)c2)on1 (stereo unspecified),active: 17.8 µM,
Cc1ccc2c(c1)c1c(n2CC(O)CN2C(=O)CNC2=O)C(=O)CCC1 (stereo unspecified),"inconclusive: 14.1 µM [inhibitor, partial curve]",
CCOc1ccc(NC(=O)c2oc3ccccc3c2NC(=O)CC)cc1,"inconclusive: 20 µM [inhibitor, single point]",
O=C(O)c1cc2cc(F)ccc2[nH]1,"inconclusive: 31.6 µM [inhibitor, partial curve] and inconclusive: 28.2 µM [inhibitor, partial curve]",
O=C(NCc1ccco1)Nc1ccc2nsnc2c1,"inconclusive: 25.1 µM [inhibitor, single point]",
O=C(/C=N/O)NCC1CCNCC1,,inactive: -9.7%
O=C(NC(NC(=S)Nc1ccccc1C(=O)O)C(Cl)(Cl)Cl)c1ccco1 (stereo unspecified),"inconclusive: 31.6 µM [inhibitor, single point]",
Clc1ccccc1-c1nnc(-c2ccccc2Cl)o1,active: 15.8 µM,
COC(=O)c1ccccc1NC1=C/C(=N\S(=O)(=O)c2cccs2)c2ccccc2C1=O,"inconclusive: 20 µM [inhibitor, partial curve]",
NCCCNC(=O)c1cc2ccccc2[nH]1,,inactive: -13%
CC(C)NC(=S)Nc1ccc(Oc2ccccc2)cc1,"inconclusive: 17.8 µM [inhibitor, partial curve]",
CCOC(=O)c1cc2c(=O)n3cccc(C)c3nc2n(Cc2ccco2)c1=NC(=O)c1ccccc1,"inconclusive: 15.8 µM [inhibitor, partial curve]",
Cc1ccc2nc(NCc3ccco3)c(C=NCc3ccco3)c(=O)n2c1,"inconclusive: 15.8 µM [inhibitor, partial curve]",
O=C(Cc1ccccc1)Nc1ccc2oc(-c3cccnc3)nc2c1,"inconclusive: 14.1 µM [inhibitor, partial curve]",
CN(C(=O)CCCOc1ccc2[nH]c(=O)ccc2c1)C1CCCCC1,"inconclusive: 17.8 µM [inhibitor, partial curve, poor fit]",
COc1cccc(CN(C)CC(=O)Nc2cc3oc4ccccc4c3cc2OC)c1,"inconclusive: 20 µM [inhibitor, partial curve]",
S=C(c1ccc(-c2ccc(Cl)c(Cl)c2)o1)N1CCOCC1,active: 25.1 µM,
Cc1cc(C)n2cc(CSC3=NCCS3)nc2n1,"inconclusive: 31.6 µM [inhibitor, partial curve]",
CCCc1cc(-c2n[nH]c(=S)n2Cc2ccccc2)cs1,"inconclusive: 14.1 µM [inhibitor, partial curve]",
FC(F)(F)c1cc(CN2CC3(CCNCC3)C2)cc(C(F)(F)F)c1,,inactive: -9.06%
CCOC(=O)COc1ccc(S(=O)(=O)c2ccc(OCC(=O)OCC)cc2)cc1,,inactive: -3.22%
S=c1[nH]nc(COc2ccc(Cl)cc2)o1,"inconclusive: 20 µM [inhibitor, partial curve]",

Compound,Potency,"activity change, negative = inhibition"
CCn1c(SCC(=O)NCCc2ccccc2)nnc1-c1cccs1,active: 28.2 µM,
CCOC(=O)Cc1nnc(NC(=O)CSc2nncn2C)s1,,inactive: -5.62%
COc1ccc(CCNc2cc(C)nc3c(-c4ccccc4)c(C)nn23)cc1OC,"inconclusive: 35.5 µM [inhibitor, single point]",
CCCOc1ccc(C(=O)N2CCCc3ccccc32)cc1,active: 15.8 µM,
CCn1c(CC(=O)Nc2cccc(OC)c2)nnc1SCC(=O)N1CCN(c2ccccc2)CC1,,inactive: 0.667%
CCN(CC)CCCN(Cc1cc2cc(OC)c(OC)cc2[nH]c1=O)C(=O)Nc1ccccc1,"inconclusive: 31.6 µM [inhibitor, single point]",
O=C(CCS(=O)(=O)Cc1ccccc1)N1CCN(c2ccccc2)CC1,,inactive: -2.16%
c1ccc(-c2oc3ncnc(NCCCn4ccnc4)c3c2-c2ccccc2)cc1,"inconclusive: 25.1 µM [inhibitor, partial curve]",
CC(OC(=O)c1nsc(Cl)c1Cl)C(=O)NCc1cccs1 (stereo unspecified),"inconclusive: 39.8 µM [inhibitor, single point]",
COc1ccccc1N1CSC2=C(C#N)C(c3ccc(SC)cc3)CC(=O)N2C1 (stereo unspecified),active: 8.91 µM,
CC(CCc1ccccc1)NC(=O)c1ccccc1 (stereo unspecified),"inconclusive: 44.7 µM [inhibitor, partial curve, poor fit]",
COc1ccc(Oc2c(C=O)c3ccccc3n2C)cc1,active: 31.6 µM,
CC(=O)Nc1nc2nc(-c3ccccc3)cc(-c3ccccc3)n2n1,"inconclusive: 31.6 µM [inhibitor, partial curve]",
Cn1c(=O)c(Cc2ccccc2)c(O)c2ccccc21,"inconclusive: 28.2 µM [inhibitor, single point]",
COc1ccc(C(=O)CSc2nn3c(=O)c(C(C)(C)C)nnc3s2)cc1,,inactive: -16%
CCCCNC(=O)c1ccc2c(c1)ncn2C1CCCCC1,active: 22.4 µM,
CC1(C)Cc2c(c(N3CCOCC3)nc3sc(C#N)c(N)c23)CS1,"inconclusive: 25.1 µM [inhibitor, partial curve]",
Cc1cc(=O)oc2ccc(OCC(=O)N(Cc3ccc(F)cc3)Cc3ccco3)cc12,"inconclusive: 31.6 µM [inhibitor, single point]",
CCOC(=O)c1[nH]c(C)c(C(=O)NC(C)(C)C)c1C,,inactive: 0.0068%
Cc1ccc(N(NC(=O)C(O)(c2ccccc2)c2ccccc2)C(=O)CCl)cc1,active: 11.2 µM,
Cc1cc(NS(=O)(=O)c2ccc(Nc3nc(-c4sc(C)nc4C)cs3)cc2)no1,"inconclusive: 14.1 µM [inhibitor, partial curve]",
O=C1Nc2ccc(S(=O)(=O)NCCC3=CCCCC3)c3cccc1c23,"inconclusive: 17.8 µM [inhibitor, partial curve]",
Oc1cccc2c(NC(=S)Nc3ccc(SC(F)F)cc3)cccc12,"inconclusive: 25.1 µM [inhibitor, partial curve]",
